From the supplement of paper PMC9446081
The whole screen tested about 39,000 compounds, of which about 220 (0.56%) showed activity. The list shows a part of the results.

system: Escherichia coli K-12 BW25113; experiment: relative growth (OD600 normalised to plate interquartile mean) (fraction); higher = less growth inhibition, active = 0.2 or less; settings: 50 µM; LB; incubation time: overnight (16-24 h)
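Also: static incubation at 37 °C against the wild-type strain, values averaged over two biological replicates.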

Row | SMILES | relative growth
1 | Cc1cccc(S(=O)(=O)N2C[C@@H](O)COC[C@@H]3O[C@@H](CC(=O)NCCCN4CCOCC4)CC[C@H]32)c1 | inactive: 1
2 | CC(C)NC(=O)Nc1ccc2c(c1)C(=O)N([C@H](C)CO)C[C@@H](C)[C@H](CN(C)Cc1ccc(Oc3ccccc3)cc1)O2 | inactive: 1.01
3 | C[C@H](CO)N1C[C@H](C)[C@H](CN(C)Cc2ccc(Oc3ccccc3)cc2)Oc2ccc(NC(=O)Nc3cccc4ccccc34)cc2C1=O | inactive: 1.02
4 | C[C@H]1CN([C@@H](C)CO)C(=O)c2cccc(NC(=O)NC3CCCCC3)c2O[C@@H]1CN(C)S(=O)(=O)c1cn(C)cn1 | inactive: 0.99
5 | C[C@H]1CN([C@@H](C)CO)C(=O)Cc2cc(NC(=O)Cc3cn(C)c4ccccc34)ccc2O[C@@H]1CN(C)C(=O)Nc1cccc2ccccc12 | inactive: 1.04
6 | COc1ccc([Si](C)(C)[C@H]2[C@H](CC(=O)N3CCC[C@H]3CO)O[C@@]3(C(=O)N(Cc4cccc(N5C(=O)c6cccc7cccc5c67)c4)c4ccccc43)[C@@H]2C)cc1 | inactive: 1.02
7 | C[C@H]1CN([C@@H](C)CO)C(=O)Cc2cc(NC(=O)c3ccncc3)ccc2O[C@@H]1CN(C)Cc1ccc(C(=O)O)cc1 | inactive: 1
8 | Cc1ccc(S(=O)(=O)N(C)C[C@@H]2Oc3ccc(NC(=O)Cn4cnnn4)cc3C(=O)N([C@H](C)CO)C[C@H]2C)cc1 | inactive: 0.986
9 | Cn1cnc(S(=O)(=O)N2C[C@H](O)COC[C@H]3O[C@H](CC(=O)NC4CCCC4)CC[C@@H]32)c1 | inactive: 1.04
10 | CO[C@@H]1CN(C)C(=O)c2ccc(NS(=O)(=O)c3cn(C)cn3)cc2OC[C@@H](C)N(Cc2cccc(F)c2)C[C@@H]1C | inactive: 1
11 | CC(C)NC(=O)N(C)C[C@H]1Oc2ccc(NC(=O)CCCN(C)C)cc2C(=O)N([C@@H](C)CO)C[C@H]1C | inactive: 0.977
12 | CCOC(=O)[C@H]1C/C=C/C[C@H](C(=O)OCC)C(=O)O[C@H]2[C@@H](OC)O[C@H](CO)[C@@H](OC(=O)Nc3cccc(F)c3)[C@@H]2OC1=O | inactive: 1.03
13 | COCC(=O)Nc1ccc2c(c1)C(=O)N(C)C[C@@H](OC)[C@@H](C)CN(C(=O)Cc1cccnc1)[C@@H](C)CO2 | inactive: 0.997
14 | C[C@@H]1CN([C@H](C)CO)C(=O)c2cc(NC(=O)Nc3cccc4ccccc34)ccc2O[C@@H](C)CCCCO[C@H]1CN(C)S(=O)(=O)c1cn(C)cn1 | inactive: 1
15 | COc1ccc(S(=O)(=O)N(C)C[C@H]2Oc3c(NC(=O)Nc4cccc5ccccc45)cccc3C(=O)N([C@H](C)CO)C[C@@H]2C)cc1 | inactive: 1.04
16 | C[C@H](CO)N1C[C@H](C)[C@@H](CN(C)Cc2ccc(C(F)(F)F)cc2)Oc2ccc(NC(=O)Cc3ccccc3)cc2C1=O | inactive: 1.07
17 | NS(=O)(=O)c1ccc(O)c([N+](=O)[O-])c1 | inactive: 0.992
18 | C[C@@H]1CN([C@@H](C)CO)C(=O)Cc2cc(NC(=O)CCN3CCOCC3)ccc2O[C@H]1CN(C)Cc1ccc(C(=O)Nc2ccccc2N)cc1 | inactive: 0.974
19 | CNC[C@H]1OCCCC[C@H](C)Oc2ccc(NC(=O)CCCN(C)C)cc2C(=O)N([C@@H](C)CO)C[C@@H]1C | inactive: 0.985
20 | CCC(c1ccc(O)cc1)C(CC)c1ccc(O)cc1 (stereo unspecified) | inactive: 0.716
21 | O=C(CN1C(=O)CSC1=O)N1CCCC1 | inactive: 0.907

Row | SMILES | relative growth
22 | Cc1noc(C)c1S(=O)(=O)N(C)C[C@@H]1Oc2c(NC(=O)C3CCCCC3)cccc2C(=O)N([C@@H](C)CO)C[C@@H]1C | inactive: 0.993
23 | C[C@H](CO)N1C[C@H](C)[C@@H](CN(C)C(=O)Nc2cccc3ccccc23)OCCCC[C@H](C)Oc2ccc(NC(=O)Nc3ccc4c(c3)OCO4)cc2C1=O | inactive: 1.03
24 | CC(C)C(=O)NCc1nnnn1-c1ccccc1 | inactive: 0.992
25 | COC(=O)c1ccccc1N(C)S(C)(=O)=O | inactive: 1.01
26 | Cc1noc(C)c1NC(=O)Nc1ccc2c(c1)CC(=O)N([C@H](C)CO)C[C@@H](C)[C@H](CN(C)Cc1ccc(-c3ccccc3)cc1)O2 | inactive: 1.04
27 | C[C@@H]1CN([C@@H](C)CO)C(=O)c2cc(NC(=O)NC3CCCCC3)ccc2O[C@@H](C)CCCCO[C@H]1CN(C)CC1CC1 | inactive: 1
28 | CC(C)=CCC/C(C)=C/CO | inactive: 0.962
29 | C[C@H](CO)N1C[C@H](C)[C@@H](CN(C)Cc2ccncc2)Oc2c(NS(=O)(=O)c3ccccc3)cccc2C1=O | inactive: 1
30 | CCOC(=O)N[C@H]1CCS(=O)(=O)C1 | inactive: 0.986
31 | O=C(C[C@H]1C=C[C@@H](NS(=O)(=O)c2ccc(F)cc2)[C@@H](CO)O1)N1CCC(Cc2ccccc2)CC1 | inactive: 1
32 | CCNC(=O)C[C@@H]1CC[C@H](NC(=O)C2CCOCC2)[C@@H](CO)O1 | inactive: 1.01
33 | C[C@H](CO)N1C[C@H](C)[C@@H](CN(C)S(=O)(=O)c2ccc(F)cc2)Oc2c(NS(=O)(=O)c3cn(C)cn3)cccc2C1=O | inactive: 0.99
34 | COc1ccc(S(=O)(=O)Nc2ccc3c(c2)C(=O)N([C@H](C)CO)C[C@H](C)[C@@H](CN(C)Cc2ccccc2)OCCCC[C@H](C)O3)cc1 | inactive: 0.962
35 | C[C@@H]1CN([C@H](C)CO)C(=O)c2cccc(NS(=O)(=O)c3cn(C)cn3)c2O[C@@H]1CN(C)S(=O)(=O)c1ccccc1 | inactive: 1.01
36 | C[C@@H]1CCCCO[C@H](CN(C)C(=O)c2ccncc2)[C@@H](C)CN([C@@H](C)CO)C(=O)c2cc(NC(=O)C3CCCCC3)ccc2O1 | inactive: 0.967
37 | C[C@@H](O)C#Cc1ccc2c(c1)O[C@H](CN(C)C(=O)c1ccncc1)[C@@H](C)CN([C@@H](C)CO)S2(=O)=O | inactive: 0.987
38 | CCS(=O)(=O)Nc1ccc2c(c1)C(=O)N(C)C[C@@H](OC)[C@@H](C)CN(CCC(F)(F)F)[C@H](C)CO2 | inactive: 0.983
39 | C[C@H](CO)N1C[C@H](C)[C@H](CN(C)C(=O)Nc2ccccc2)OCCCC[C@H](C)Oc2ccc(NS(=O)(=O)c3ccc(F)cc3)cc2C1=O | inactive: 1
40 | Cc1ccc(S(=O)(=O)Nc2ccc3c(c2)CC(=O)N([C@H](C)CO)C[C@@H](C)[C@H](CN(C)S(C)(=O)=O)O3)cc1 | inactive: 1.02
41 | C[C@@H]1CN([C@H](C)CO)C(=O)c2cccc(NS(C)(=O)=O)c2O[C@@H]1CN(C)S(=O)(=O)c1ccc(F)cc1 | inactive: 0.967
42 | O=C(N[C@H]1CC[C@@H](CC(=O)N2CCOCC2)O[C@H]1CO)c1ccc2c(c1)OCO2 | inactive: 1.01

Row | SMILES | relative growth
43 | Cc1noc(C)c1NC(=O)Nc1ccc2c(c1)C(=O)N([C@H](C)CO)C[C@H](C)[C@H](CN(C)C(=O)c1ccccc1)OCCCC[C@H](C)O2 | inactive: 1.02
44 | CC(C)CC#Cc1cnc2c(c1)C(=O)N([C@@H](C)CO)C[C@@H](C)[C@@H](CN(C)C(=O)c1ccc3c(c1)OCO3)O2 | inactive: 0.974
45 | C[C@@H]1CCCCO[C@H](CN(C)C(=O)Nc2ccc(F)cc2)[C@@H](C)CN([C@H](C)CO)C(=O)c2cc(NC(=O)Nc3ccc4c(c3)OCO4)ccc2O1 | inactive: 0.991
46 | C[C@@H]1CN([C@@H](C)CO)C(=O)c2cc(NS(=O)(=O)c3ccc(F)cc3)ccc2O[C@@H](C)CCCCO[C@@H]1CN(C)C(=O)Nc1cccc2ccccc12 | inactive: 1.03
47 | C[C@H](CO)N1C[C@H](C)[C@H](CN(C)Cc2ccc(Oc3ccccc3)cc2)Oc2c(NS(=O)(=O)c3cccs3)cccc2C1=O | inactive: 0.941
48 | CC(C)NC(=O)N(C)C[C@@H]1Oc2ccc(NS(=O)(=O)c3cn(C)cn3)cc2CC(=O)N([C@@H](C)CO)C[C@@H]1C | inactive: 0.982
49 | COc1ccc(S(=O)(=O)N(C)C[C@@H]2Oc3cc(C4=CCCC4)ccc3S(=O)(=O)N([C@H](C)CO)C[C@@H]2C)cc1 | inactive: 1.01
50 | Cc1cccc(S(=O)(=O)N2C[C@@H](O)COC[C@H]3O[C@@H](CC(=O)NCc4ccncn4)CC[C@@H]32)c1 | inactive: 1.02
51 | O=C(O)CCCCCCC(=O)Nc1ccc([C@H]2O[C@@H](CSc3nc(-c4ccccc4)c(-c4ccccc4)o3)C[C@H](c3ccc([N+](=O)[O-])cc3)O2)cc1 | inactive: 1.03
52 | Cc1noc(C)c1NC(=O)N[C@H]1CC[C@@H](CC(=O)N2CCN(C)CC2)O[C@@H]1CO | inactive: 0.991
53 | CNC[C@H]1Oc2ccc(NC(=O)Cn3cnnn3)cc2CC(=O)N([C@@H](C)CO)C[C@H]1C | inactive: 1
54 | N[C@H](C(=O)O)c1ccc(C(=O)O)c(O)c1 | inactive: 0.979
55 | CC(=O)OC1CC2C(C)(C)C(=O)C3OC3C2(C)C2CCC3(C)C(c4ccoc4)OC(=O)C4OC43C12C (stereo unspecified) | inactive: 1.07
56 | C[C@@H]1CCCCO[C@@H](CN(C)Cc2ccc(Cl)c(Cl)c2)[C@@H](C)CN([C@H](C)CO)C(=O)c2cc(NS(C)(=O)=O)ccc2O1 | inactive: 0.971
57 | C[C@H]1CN([C@@H](C)CO)C(=O)c2cc(NC(=O)CCN3CCOCC3)ccc2O[C@H]1CN(C)CC1CCCCC1 | inactive: 0.967
58 | Cn1ccnc1C(=O)N[C@@H]1CN(C(N)=O)[C@H]2CCCO[C@@H]12 | inactive: 1.02
59 | O=C(NCCO)c1nc(NCCO)c2ccccc2n1 | inactive: 0.959
60 | C[C@H](NC(=O)C[C@@H]1C[C@@H]2c3cc(NC(=O)Nc4ccc(C(F)(F)F)cc4)ccc3O[C@@H]2[C@H](CO)O1)c1ccccc1 | inactive: 0.994
61 | C[C@@H](O)c1nnc(N)[nH]1 | inactive: 1.02
